This is one part of the list. The energies were worked out here from pooled read counts, against the library average; single values are noisy.
These sequences were tested against T1, Pho4 (S. cerevisiae) (UniProt P07270) (assay: relative binding free energy (BET-seq); higher = weaker binding). Settings: reference: library average.
T1 sequence: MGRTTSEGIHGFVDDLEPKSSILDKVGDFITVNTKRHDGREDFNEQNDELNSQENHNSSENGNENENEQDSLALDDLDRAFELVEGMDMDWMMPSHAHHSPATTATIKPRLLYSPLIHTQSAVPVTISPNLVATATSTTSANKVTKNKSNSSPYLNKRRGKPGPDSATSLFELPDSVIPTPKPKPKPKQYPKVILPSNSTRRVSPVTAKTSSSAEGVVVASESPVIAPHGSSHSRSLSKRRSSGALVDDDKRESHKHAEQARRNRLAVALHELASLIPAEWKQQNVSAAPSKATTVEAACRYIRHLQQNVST

Sequence | relative binding free energy [kcal/mol]
GTATACACGTGTGTCA | 0.01
ATTTTCACGTGGTGTT | 0.24
TCTGTCACGTGAGTAA | 0.21
AGGGACACGTGGGCTT | -0.06
TTGCTCACGTGTAGGG | 0.23
TGCATCACGTGAGCGG | 0.42
GAATTCACGTGGCAGT | 0.35
TCTTGCACGTGTTGGG | 0.02
GGTATCACGTGTGTTA | 0.24
TAAGGCACGTGCTGGA | -0.2
TTAGACACGTGGGTAA | 0.01
CGGAACACGTGTATGT | 0.14
AAGGTCACGTGTACTG | 0.09
TTCTTCACGTGTGTGC | 0.31
GGGTGCACGTGGCACG | -0.2
CATTGCACGTGGCGTG | -0.07
GGCGCCACGTGATGGT | 0
GAAGTCACGTGGTGGG | 0.13
ACGGTCACGTGGTTGG | 0
ATACGCACGTGGGGGG | -0.35
TAAGTCACGTGAGTGA | 0.26
ATGTGCACGTGGAGCG | 0.11
AAGGTCACGTGTAAAG | 0.3

Sequence | relative binding free energy [kcal/mol]
ATGGTCACGTGGGATT | 0.16
ATGGACACGTGGCTTT | -0.07
CGGATCACGTGGGGGA | 0.05
GGAGGCACGTGATGGC | -0.03
ATGGACACGTGTAGGA | -0.02
ATATTCACGTGCGTGT | 0.09
TTTAGCACGTGGCGTT | -0.14
TTATACACGTGTTTGA | 0
TAACGCACGTGGTTTA | -0.18
GGTTTCACGTGTGTAA | 0.37
TAGATCACGTGGTAAT | 0.19
GTGTTCACGTGGCGGA | 0.13
GAATGCACGTGGTATT | 0.08
TTTGACACGTGTGAGT | 0.04
AGTCGCACGTGGTCGG | -0.12
CTGAGCACGTGGGGAT | -0.19
TTTCTCACGTGCAGGG | 0.28
TGCGACACGTGGTTAG | -0.04
TTTGTCACGTGCTGTC | 0.09
TGGTTCACGTGTTGAT | 0.36
GTTAGCACGTGGGTCG | -0.14
AACATCACGTGAATGG | 0.47
TGAGACACGTGTGTAA | 0.07

Sequence | relative binding free energy [kcal/mol]
TTTCGCACGTGTGTCG | 0.05
GTAGCCACGTGTTGGT | -0.01
TGTAGCACGTGATGGC | 0.18
AGGAGCACGTGAAGGT | 0.13
AAAAGCACGTGTGATT | 0.1
GTCGACACGTGTGGGC | 0.08
TCTGTCACGTGTTAAG | 0.18
GAGGTCACGTGTTTTG | 0.25
TAGGGCACGTGTTAAA | -0.07
GGTTTCACGTGGTGAC | 0.37
GGTGGCACGTGGAATA | 0.11
AGAGCCACGTGGAGTG | -0.07
GATGACACGTGGAGCG | 0.22
AATATCACGTGTTTAG | 0.09
GTAGGCACGTGCTGAG | -0.13
TGATTCACGTGTGGTG | 0.25
TAGGTCACGTGAAAGC | 0.45
GAAGACACGTGGTGGA | -0.08
TGAGACACGTGGGAAG | -0.11
GATAGCACGTGGGTGG | -0.08
GAATTCACGTGGGTGT | 0.29
GGGGTCACGTGTGGAA | 0.22
TGGAGCACGTGAGTGG | 0.12

Sequence | relative binding free energy [kcal/mol]
AGAATCACGTGGAATT | 0.47
TTTTGCACGTGGCAAT | -0.15
AACAGCACGTGGGTGT | -0.34
AGCTACACGTGGGGGC | 0
AATGCCACGTGTAGGT | -0.11
GAGAACACGTGTGGGA | 0.12
GTTTGCACGTGACTGG | 0.22
GCCTGCACGTGTGTTT | 0.18
AGGAACACGTGGAGTT | -0.01
TTAGACACGTGGGGGC | -0.13
TGGGTCACGTGTGCGT | 0.16
GTACTCACGTGCAGGT | 0.34
GATTGCACGTGGTTGC | -0.02
AACTTCACGTGGGTGC | 0.33
TCGTTCACGTGCTGGA | 0.29
TGATGCACGTGCTAGG | -0.04
TGTTGCACGTGTTGTG | 0.01
ATGCACACGTGAGGGT | 0.09
ATATGCACGTGAATAT | 0.24
ATAGTCACGTGTTTAA | 0
AACGTCACGTGCAGGG | 0.12
ACGGTCACGTGTGATG | 0.19
GTCGTCACGTGGTAGG | 0.14

Sequence | relative binding free energy [kcal/mol]
AGGGCCACGTGAGGTA | 0.01
ATAAACACGTGTGTGT | -0.08
TTGAACACGTGGTGTG | -0.08
ATAGGCACGTGCAGTT | -0.04
AAATACACGTGGTGGA | -0.06
TAGGTCACGTGTGGCC | 0.05
AGGGACACGTGAGGAT | 0.24
GTCTCCACGTGGGGTG | -0.15
TTGTGCACGTGTTTAC | 0
TCATGCACGTGGATTG | -0.03
AGTACCACGTGATGGT | 0
TGGGTCACGTGTAGAG | 0.15
TGAGTCACGTGCGAGT | 0.07
TAATTCACGTGGAACG | 0.45
GTTGTCACGTGTGGCG | 0.28
GTATTCACGTGGTCGG | 0.27
GGAAGCACGTGTCGGG | -0.06
GAGGTCACGTGGGAAA | 0.22
AGCAGCACGTGGATGG | -0.08
TGGGGCACGTGAGTCA | 0.11
TAGTGCACGTGATTAG | 0.04
TAAGTCACGTGTGATG | 0.31
GTCAGCACGTGTTAAG | 0.04

— the BET-seq Pho4 binding data (Le et al. 2018)
